The values below come from the supplement of paper PMC11125491.

± gives the standard deviation of the averaged measurements. Growth of baker's yeast expressing single-residue variants of Pneumocystis jirovecii dihydrofolate reductase in 8.8 or 44 µM methotrexate (about 75% and 90% inhibition of the wild type). Selection coefficient per generation; 0 = like wild type, above 0 = less sensitive, below 0 = more sensitive or loss of function. No active / inactive call per row; the paper calls resistant above 0.220 (8.8 µM) or 0.243 (44 µM) together with a significance test. At 44 µM about 15% of codons end with one read or none, so the lowest values are floors (replicate rank correlation 0.74; 0.94 at 8.8 µM).

The chains are these.
B1: UniProt A0EPZ9; numbered along this chain (parent)
chain: MDWQKSLTLIVALTLSRGIGLKNDLPWKLKSDMMFFSRVTSGLLVTRSTGQMNVVLMGRKTWESLPAHSRPLKNRINVVISRQEVLDLGGGAYHARSLDDALALLSQIYDSTSKIQLNRVFVIGGGELCKAAMEHSRLNRIIATVIHNEVDCDVFFPIDFRSSQSCLPWRKQDHSVLEAWVGSKVPQGKINENGFIYEFEMWIRDI

Variants of B1 are the subject of the series. The series can be described thus: selection coefficient against synonymous wild-type codons (log2 per generation); higher = faster growth than wild type. The conditions noted are these: with Saccharomyces cerevisiae carrying the variant on a plasmid. As to the method:
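Pooled growth of yeast carrying single-residue variants of P. jirovecii dihydrofolate reductase (own DFR1 gene intact), two passages at 30 °C, three cultures, sequenced before and after. Codons with under 15 starting reads are left out; codons of one change are averaged.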

Take MDWQKSLTLIVALTLSRGIGLKNDLPWKLKSDMMFFSRVTSGLLVTRSTGQMNVVLMGRKTWESLPAHSRPLKNRINVVISRQEVLDLGGGAYHARSLDDALALLSQIYDSTSKIQLNRVFVIGSGELCKAAMEHSRLNRIIATVIHNEVDCDVFFPIDFRSSQSCLPWRKQDHSVLEAWVGSKVPQGKINENGFIYEFEMWIRDI [G125S]: the “selection coefficient against synonymous wild-type codons (log2)” value (shortened to “selection coefficient … (log2)”) was -0.0583 ± 0.041 (methotrexate 8.8 µM) and 0.433 ± 0.13 (methotrexate 44 µM).
For MDWQKSLTLIVALTLSRGIGLKNDLPWKLKSDMMFFSRVTSGLLVTRSTGQMNVVLMGRKTWESLPAHSRPLKNRINVVISRQEVLDLGGGAYHARSLDDALALLSQIYDSTSKIQLNRVFVIGGGELCKAAMEHSRLNRIIAIVIHNEVDCDVFFPIDFRSSQSCLPWRKQDHSVLEAWVGSKVPQGKINENGFIYEFEMWIRDI [T144I], the “selection coefficient … (log2)” value is -0.312 ± 0.057 (methotrexate 8.8 µM) and 0.176 ± 0.071 (methotrexate 44 µM).
As to MDWQKSLTLIVALTLSRGIGLKNDLPNKLKSDMMFFSRVTSGLLVTRSTGQMNVVLMGRKTWESLPAHSRPLKNRINVVISRQEVLDLGGGAYHARSLDDALALLSQIYDSTSKIQLNRVFVIGGGELCKAAMEHSRLNRIIATVIHNEVDCDVFFPIDFRSSQSCLPWRKQDHSVLEAWVGSKVPQGKINENGFIYEFEMWIRDI [W27N], the “selection coefficient … (log2)” value (methotrexate 8.8 µM) was -0.306 ± 0.072 and the “selection coefficient … (log2)” value (methotrexate 44 µM) is -0.14 ± 0.082.
Taken in the same sequence, the figures for MDWQKSLTLIVALTLSRGIGLKNDLPWKLKSDMMFFSRVTSGLLVTRSTGQMNVVLMGRKTWESLPAHSRPLKNRINVVISRQEVLDLGGGAYHARSLDDALALLSQIYDSTSKIQLNRVFVIGGGELCKAAMEHSRLNRIIATVIHNEVDCDVFFPIDFRSSQSCLPWRKQDHSVLEAWVGSKVPQKKINENGFIYEFEMWIRDI [G188K] were 0.00953 ± 0.07 and -0.145 ± 0.13.
For MDWQKSLTLIVALTLSRGIGLKNDLPWKLKSDMMFFSRVTSGLLVTRSTGQVNVVLMGRKTWESLPAHSRPLKNRINVVISRQEVLDLGGGAYHARSLDDALALLSQIYDSTSKIQLNRVFVIGGGELCKAAMEHSRLNRIIATVIHNEVDCDVFFPIDFRSSQSCLPWRKQDHSVLEAWVGSKVPQGKINENGFIYEFEMWIRDI [M52V], the “selection coefficient … (log2)” value reads like this: (methotrexate 8.8 µM) -0.0484 ± 0.037; (methotrexate 44 µM) -0.031 ± 0.057.
Turning to MDWQKSLTLIVALTLSRGIGLKNDMPWKLKSDMMFFSRVTSGLLVTRSTGQMNVVLMGRKTWESLPAHSRPLKNRINVVISRQEVLDLGGGAYHARSLDDALALLSQIYDSTSKIQLNRVFVIGGGELCKAAMEHSRLNRIIATVIHNEVDCDVFFPIDFRSSQSCLPWRKQDHSVLEAWVGSKVPQGKINENGFIYEFEMWIRDI [L25M], the “selection coefficient … (log2)” value was determined as 0.125 ± 0.042 (methotrexate 8.8 µM) and 0.0955 ± 0.014 (methotrexate 44 µM).
Taken in the same sequence, the figures for MDWQKSLTLIVALTLSRGIGLKNDLPWKLKSDMMFFSRVTSGLLVTRSTGQMNVVLMGRKTWESLPAHSRPLKNRINVVISRQEVLDLGGGAYHARSLDDALALLSQIYDSTSKIQLNRVFVIGGGELCKAAMEHSRLNRIIATVIHNEVDCDVFFPIDFRSSQSCLPWRKQDYSVLEAWVGSKVPQGKINENGFIYEFEMWIRDI [H174Y] were -0.2 ± 0.083 and -0.253 ± 0.04.
Taken in the same sequence, the figures for MDWQKSLTLIVALTLSRGIGLKNDLPWKLKSDMKFFSRVTSGLLVTRSTGQMNVVLMGRKTWESLPAHSRPLKNRINVVISRQEVLDLGGGAYHARSLDDALALLSQIYDSTSKIQLNRVFVIGGGELCKAAMEHSRLNRIIATVIHNEVDCDVFFPIDFRSSQSCLPWRKQDHSVLEAWVGSKVPQGKINENGFIYEFEMWIRDI [M34K] were 0.0421 ± 0.037 and 0.064 ± 0.036.
For the variant MDWQKSLTLIVALTLSRGIGLKNDLPWKLKSDMMFFSRVTSGLLVTRSTGQMNVVLMGRKTWESLPAHSRPLKNRINVVISRQEVLDLGGGAYHARSLDDALALLSQIYDSTDKIQLNRVFVIGGGELCKAAMEHSRLNRIIATVIHNEVDCDVFFPIDFRSSQSCLPWRKQDHSVLEAWVGSKVPQGKINENGFIYEFEMWIRDI [S113D], the “selection coefficient … (log2)” value runs as follows: (methotrexate 8.8 µM) -0.0175 ± 0.074; (methotrexate 44 µM) 0.0566 ± 0.081.
In the same order, the values of MDWQKSLTLIVALTLSRGIGLKNDLPWKLKSDMMFFSRVTSGLLVTRSTGQMNVVLMGRKTWESLPAHSRPLKNRINVVISRQEVLDLGGMAYHARSLDDALALLSQIYDSTSKIQLNRVFVIGGGELCKAAMEHSRLNRIIATVIHNEVDCDVFFPIDFRSSQSCLPWRKQDHSVLEAWVGSKVPQGKINENGFIYEFEMWIRDI [G91M] are 0.102 ± 0.03 and 0.154 ± 0.065.
With MDWQKSLTLIVALTLSRGIGLKNDLPWKLKSDMMFFSRVTSGLLVTRSTGQMNVVLMGRKTWESLPAHSRPLKNRINVVISRQEVLDLGGGAYHARSLDDALALLSQIYDSTSKIQLNRVFVIGGGELCKAAMEHSRLNRIIATVIHNEVDCDVFFPIDFRSSQSCLPWRKQDHSVHEAWVGSKVPQGKINENGFIYEFEMWIRDI [L177H], the “selection coefficient … (log2)” value by setting is: (methotrexate 8.8 µM) -0.178 ± 0.048; (methotrexate 44 µM) -0.329 ± 0.079.
Turning to MDWQKSLTLIVALTLSRGIGLKNDLPWKLKSDMMFFSRVTSGLLVTRSTGQMNVVLMGRKTWESLPAHSRPLKNRINVVISRQEVLDLGGGAYHARSLDDALALLSQIYDSTSKIQLNRVFVIGGGELCKAAMEHSRLNRIIATVIHNEVDCDVFFPIDFRSSQSCLPWRKQDHSVCEAWVGSKVPQGKINENGFIYEFEMWIRDI [L177C], the “selection coefficient … (log2)” value (methotrexate 8.8 µM) is -0.0531 ± 0.073 and the “selection coefficient … (log2)” value (methotrexate 44 µM) is -0.102 ± 0.018.
On to MDWQKSLTLIVALTLSRGIGLKNDLPWKLKSDMMFFSRVTSGLLVTRSTGQMNVVLMGRKTWESLPAHSRPLKNRINVVISRQEVLDLGGGAYHARSLDDALALLSQIYDSTSKIQLNRVFVIGGGELCKAAMEHSRLNRIIATVIHNEVDCDVFFPIDFRSSQSGLPWRKQDHSVLEAWVGSKVPQGKINENGFIYEFEMWIRDI [C166G], for which the “selection coefficient … (log2)” value by setting is: (methotrexate 8.8 µM) -0.0586 ± 0.054; (methotrexate 44 µM) -0.0787 ± 0.088.
In the case of MDWQKSLTLIVALTLSRGIGLKNDLPWKLKSDMMFFSRVTSGLLVTRETGQMNVVLMGRKTWESLPAHSRPLKNRINVVISRQEVLDLGGGAYHARSLDDALALLSQIYDSTSKIQLNRVFVIGGGELCKAAMEHSRLNRIIATVIHNEVDCDVFFPIDFRSSQSCLPWRKQDHSVLEAWVGSKVPQGKINENGFIYEFEMWIRDI [S48E], the “selection coefficient … (log2)” value runs as follows: (methotrexate 8.8 µM) 0.14 ± 0.019; (methotrexate 44 µM) 0.0554 ± 0.084.
In the same order, the values of MDWQKSLTLIVALTLSRGIGLKNDLPWKLKSDMMFFSRVTSGLLVTRSTGQMNVVLMGRKTWESLPAHSRPLKNRINVCISRQEVLDLGGGAYHARSLDDALALLSQIYDSTSKIQLNRVFVIGGGELCKAAMEHSRLNRIIATVIHNEVDCDVFFPIDFRSSQSCLPWRKQDHSVLEAWVGSKVPQGKINENGFIYEFEMWIRDI [V79C] are -0.637 ± 0.14 and -0.221 ± 0.026.
